The subject of this data set is recombinant factor X (rFX), expressed in CHO cells from human factor X cDNA.

Sequence of recombinant factor X (rFX), expressed in CHO cells from human factor X cDNA (chain, as listed by the source): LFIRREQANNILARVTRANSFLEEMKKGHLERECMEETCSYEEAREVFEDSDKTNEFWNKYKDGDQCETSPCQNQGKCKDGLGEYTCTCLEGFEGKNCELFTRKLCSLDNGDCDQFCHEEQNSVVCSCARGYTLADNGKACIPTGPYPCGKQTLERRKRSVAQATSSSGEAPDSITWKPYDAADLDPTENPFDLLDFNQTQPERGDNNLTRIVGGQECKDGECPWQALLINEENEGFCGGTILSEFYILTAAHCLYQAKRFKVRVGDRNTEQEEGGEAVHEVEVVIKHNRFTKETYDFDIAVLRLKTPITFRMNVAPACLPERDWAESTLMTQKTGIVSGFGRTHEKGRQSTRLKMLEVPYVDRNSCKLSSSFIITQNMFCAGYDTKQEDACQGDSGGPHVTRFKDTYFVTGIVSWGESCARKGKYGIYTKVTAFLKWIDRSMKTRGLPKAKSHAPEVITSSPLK

On to “rfurin ÿTM6xHis (r-furin derivative, as CHO cell culture supernatant; patent application EP 0 775 750) (sequence not shown)”, for which the “N-termini of rFX processing products (Edman analysis) after 12 hours at 37° C. with CHO-r-furin supernatant” value was “After incubation of rFX from CHO cells (c) and CHO-FD11 cells (e) in the presence of furin, only light and heavy chains having correct N-termini are found”; the activity (mU), FX Coatest after RVV activation, incubation 0 days came to 853 mU; the activity (mU), FX Coatest after RVV activation, incubation 1 day is 1020 mU; the activity (mU), FX Coatest after RVV activation, incubation 2 days came out at 1100 mU. The activity (mU), FX Coatest after RVV activation, incubation 3 days amounted to 1140 mU; the activity (mU), FX Coatest after RVV activation, incubation 4 days came out at 1200 mU; the “processing of single chain and propeptide containing rFX to light/heavy chain (Western blot)” value was “CHO-rFX/CHO-rfurin shows almost complete processing already after 2 hours of incubation at 37 °C”.

The values are drawn from patent US6905846.
